Laboratory results published in PubChem BioAssay AID220 (DTP/NCI, 2004).
Inconclusive results are not listed. For part of its entries the source gives two or more results. They are shown here; other results are not. There may be further records. The records of an entry are repeated measurements across runs, samples, wells, individuals or studies.

Tested on: CD8F1 mice, subcutaneous mammary adenocarcinoma, T/C%
Assay: NCI In Vivo Anticancer Drug Screen. Data for tumor model Mammary Adenocarcinoma CD8F1 (subcutaneous) in CD8F1
Settings: higher = larger tumour
Protocol: The antitumor activity of compounds was measured in mice bearing transplantable tumors. Survival or tumor size were measured and the results are expressed as the measurement made in the treated group (T) divided by the measurement made in the vehicle treated control group (C). The tumor model used in this assay is Mammary Adenocarcinoma CD8F1 (subcutaneous) in CD8F1

[1] = endpoint: median tumor weight (est.), dose: 100.0 mg/kg/injection, schedule: Q07DX005 (ip), vehicle: saline with Tween-80
[2] = endpoint: median tumor weight (est.), dose: 100.0 mg/kg/injection, schedule: Q07DX005 (ip), vehicle: Klucel (hydroxypropylcellulose) (HPC)
[3] = endpoint: median tumor weight (est.), dose: 50.0 mg/kg/injection, schedule: Q07DX005 (ip), vehicle: Klucel (hydroxypropylcellulose) (HPC)

With `O=P1(N(CCCl)CCCl)NCCCO1` (centres undefined) as the molecule, how does the T/C (endpoint: mean tumor weight, dose: 20.0 mg/kg/injection, schedule: Q01DX009 (ip), vehicle: saline) read?
Its T/C is 24 % of control and 62 % of control.

And the T/C (endpoint: median tumor weight (est.), dose: 37.5 mg/kg/injection, schedule: Q07DX005 (ip), vehicle: saline)?
Its T/C is 16 % of control and 45 % of control.

With `COc1ccc(S(=O)(=O)N/N=C/C(=O)O)cc1` as the molecule, how does the T/C [1] read?
The T/C was 15 % of control and 57 % of control.

With `COc1cc(NCc2ccc3nc(N)nc(N)c3c2C)cc(OC)c1OC` as the molecule, how does the T/C (endpoint: median tumor weight (est.), dose: 15.0 mg/kg/injection, schedule: Q07DX005 (ip), vehicle: sodium bicarbonate) read?
Its T/C is 59 % of control and 110 % of control.

What about the T/C (endpoint: median tumor weight (est.), dose: 30.0 mg/kg/injection, schedule: Q07DX005 (ip), vehicle: sodium bicarbonate) of the same molecule?
The T/C was 67 % of control, 85 % of control, 95 % of control.

And the T/C (endpoint: median tumor weight (est.), dose: 60.0 mg/kg/injection, schedule: Q07DX005 (ip), vehicle: sodium bicarbonate)?
The T/C was 20 % of control, 55 % of control, 59 % of control.

For `O=CC(S)CO` (centres undefined), which T/C (endpoint: median tumor weight (est.), dose: 100.0 mg/kg/injection, schedule: Q07DX005 (ip), vehicle: suspension in saline) is on record?
The T/C was 39 % of control and 94 % of control.

How did the T/C (endpoint: median tumor weight change, dose: 5.0 mg/kg/injection, schedule: Q01DX001 (ip), vehicle: saline with Tween-80) turn out when `CCOC(=O)NC1=C(N2CC2)C(=O)C(NC(=O)OCC)=C(N2CC2)C1=O` was run?
Its T/C is 51 % of control and 120 % of control.

Which T/C (endpoint: median tumor weight (est.), dose: 25.0 mg/kg/injection, schedule: Q07DX005 (ip), vehicle: saline) does the source give for `CCN(CC)CCOC(=O)Cc1cccc2c(=O)cc(-c3ccccc3)oc12` here?
Its T/C is 62 % of control and 124 % of control.

And the T/C (endpoint: median tumor weight (est.), dose: 50.0 mg/kg/injection, schedule: Q07DX005 (ip), vehicle: saline)?
Its T/C is 27 % of control, 53 % of control, 86 % of control.

What about the T/C (endpoint: median tumor weight (est.), dose: 100.0 mg/kg/injection, schedule: Q07DX005 (ip), vehicle: saline) of the same molecule?
The T/C was 91 % of control, 93 % of control, 170 % of control.

What about the T/C (endpoint: median tumor weight (est.), dose: 200.0 mg/kg/injection, schedule: Q07DX005 (ip), vehicle: saline) of the same molecule?
Its T/C is 9 % of control and 37 % of control.

With `Nc1n[nH]c(N)n1` as the molecule, how does the T/C (endpoint: median tumor weight (est.), dose: 400.0 mg/kg/injection, schedule: Q07DX005 (ip), vehicle: saline) read?
The T/C was 38 % of control and 120 % of control.

What about the T/C (endpoint: median tumor weight (est.), dose: 800.0 mg/kg/injection, schedule: Q07DX005 (ip), vehicle: saline) of the same molecule?
The T/C was 29 % of control and 86 % of control.

How did the T/C [2] turn out when `CC(CN1CC(=O)NC(=O)C1)N1CC(=O)NC(=O)C1` (centres undefined) was run?
Its T/C is 12 % of control and 61 % of control.

With `O=C1CN(Cc2ccc3c(c2)OCO3)NO1` as the molecule, how does the T/C (endpoint: median tumor weight change, dose: 500.0 mg/kg/injection, schedule: Q01DX001 (ip), vehicle: saline with Tween-80) read?
Its T/C is 73 % of control and 102 % of control.

How did the T/C (endpoint: median tumor weight (est.), dose: 25.0 mg/kg/injection, schedule: Q07DX005 (ip), vehicle: Klucel (hydroxypropylcellulose) (HPC)) turn out when `Cc1cc(N(CCOS(C)(=O)=O)CCOS(C)(=O)=O)ccc1C=Nc1ccc(-c2nc(Cc3ccccc3)sc2C)cc1` was run?
Its T/C is 25 % of control and 63 % of control.

And the T/C [3]?
The T/C was 34 % of control and 79 % of control.

`OCCOCC(F)(F)F` was tested. Which T/C [1] did it give?
The T/C was 60 % of control and 104 % of control.

What about the T/C (endpoint: median tumor weight (est.), dose: 400.0 mg/kg/injection, schedule: Q07DX005 (ip), vehicle: saline with Tween-80) of the same molecule?
Its T/C is 27 % of control and 90 % of control.

`COC(=O)C12OCC34C(CC5C(C)=CC(=O)C(O)C5(C)C3C(O)C1O)OC(=O)C(OC(=O)CC(C)C)C24` (centres undefined) was tested. Which T/C (endpoint: median tumor weight (est.), dose: 0.25 mg/kg/injection, schedule: Q07DX005 (ip), vehicle: saline + alcohol) did it give?
The T/C was 83 % of control and 151 % of control.

How did the T/C (endpoint: median tumor weight (est.), dose: 24.0 mg/kg/injection, schedule: Q07DX005 (ip), vehicle: saline with Tween-80) turn out when `CCCCCCCCCCS(=O)CC(CO)NC(=O)/C=C/c1c(C)[nH]c(=O)[nH]c1=O` (centres undefined) was run?
The T/C was 39 % of control and 120 % of control.

`c1ccc([P+](c2ccccc2)(c2ccccc2)c2ccccc2)cc1` was tested. Which T/C (endpoint: median tumor weight (est.), dose: 0.31 mg/kg/injection, schedule: Q04DX005 (ip), vehicle: saline) did it give?
The T/C was 102 % of control and 162 % of control.

What about the T/C (endpoint: median tumor weight (est.), dose: 0.62 mg/kg/injection, schedule: Q07DX004 (ip), vehicle: saline) of the same molecule?
Its T/C is 77 % of control and 116 % of control.

What about the T/C (endpoint: median tumor weight (est.), dose: 2.5 mg/kg/injection, schedule: Q07DX004 (ip), vehicle: saline) of the same molecule?
Its T/C is 76 % of control and 119 % of control.

For `CS(=O)(=O)OCCN(CCOS(C)(=O)=O)c1ccc(C=O)cc1`, which T/C (endpoint: median tumor weight (est.), dose: 50.0 mg/kg/injection, schedule: Q07DX005 (ip), vehicle: saline with Tween-80) is on record?
Its T/C is 79 % of control and 247 % of control.

Which T/C (endpoint: median tumor weight (est.), dose: 50.0 mg/kg/injection, schedule: Q07DX005 (ip), vehicle: other) does the source give for `Cc1ccc(S(=O)(=O)N/N=C/C(=O)O)cc1` here?
Its T/C is 39 % of control and 76 % of control.

What about the T/C (endpoint: median tumor weight (est.), dose: 100.0 mg/kg/injection, schedule: Q07DX005 (ip), vehicle: other) of the same molecule?
The T/C was 28 % of control and 57 % of control.

Which results are given for `COC(=O)[C@@H]1c2cc3c(c(O)c2[C@@H](OC)C[C@@]1(C)O)C(=O)c1c(O)cc2c(c1C3=O)OC1O[C@@]2(C)[C@H](O)[C@@H](N(C)C)[C@@H]1O`?
T/C (endpoint: median tumor weight (est.), dose: 6.25 mg/kg/injection, schedule: Q07DX005 (ip), vehicle: suspension in saline): 84 % of control and 152 % of control; T/C (endpoint: median tumor weight (est.), dose: 25.0 mg/kg/injection, schedule: Q07DX005 (ip), vehicle: suspension in saline): 75 % of control, 92 % of control, 174 % of control

Which results are given for `C[C@]12CCC(=O)C=C1CC[C@@H]1[C@@H]2C(=O)C[C@@]2(C)[C@H]1CC[C@]2(O)C(=O)CO`?
T/C [2]: 48 % of control and 102 % of control; T/C (endpoint: median tumor weight (est.), dose: 400.0 mg/kg/injection, schedule: Q07DX005 (ip), vehicle: Klucel (hydroxypropylcellulose) (HPC)): 21 % of control, 47 % of control, 64 % of control; T/C (endpoint: median tumor weight (est.), dose: 800.0 mg/kg/injection, schedule: Q07DX005 (ip), vehicle: Klucel (hydroxypropylcellulose) (HPC)): 15 % of control, 35 % of control, 96 % of control

`CCN1/C(=C/C=C/C=C\C=C\c2sc3ccc4ccccc4c3[n+]2CC)Sc2ccc3ccccc3c21` was tested. Which T/C (endpoint: median tumor weight change, dose: 12.5 mg/kg/injection, schedule: Q01DX001 (ip), vehicle: saline with Tween-80) did it give?
Its T/C is 56 % of control and 97 % of control.

What about the T/C (endpoint: median tumor weight change, dose: 50.0 mg/kg/injection, schedule: Q01DX001 (ip), vehicle: saline with Tween-80) of the same molecule?
The T/C was 23 % of control and 72 % of control.

For `Cc1c[nH]c(=O)[nH]c1=O`, which T/C (endpoint: median tumor weight (est.), dose: 32.0 mg/kg/injection, schedule: Q07DX005 (ip), vehicle: Klucel (hydroxypropylcellulose) (HPC)) is on record?
The T/C was 32 % of control and 153 % of control.

With `CC(=O)OCC1OC(OC2=C(CC=C(C)C)C(=O)c3ccccc3C2=O)C(OC(C)=O)C(OC(C)=O)C1OC(C)=O` (centres undefined) as the molecule, how does the T/C [3] read?
The T/C was 73 % of control and 116 % of control.

`CCCC(=O)O.CCCC(=O)O.CCCC(=O)O.CCCC(=O)O.[Rh].[Rh]` was tested. Which T/C (endpoint: median tumor weight change, dose: 0.31 mg/kg/injection, schedule: Q01DX001 (ip), vehicle: saline + alcohol) did it give?
Its T/C is 76 % of control and 114 % of control.

`COc1cccc2c1C(=O)c1c(O)c3c(c(O)c1C2=O)CC(O)(/C(C)=N/NC(=O)CCC(=O)N/N=C(\C)C1(O)Cc2c(O)c4c(c(O)c2C(OC2CC(N)C(O)C(C)O2)C1)C(=O)c1c(OC)cccc1C4=O)CC3OC1CC(N)C(O)C(C)O1` (centres undefined) was tested. Which T/C (endpoint: median tumor weight (est.), dose: 3.0 mg/kg/injection, schedule: Q07DX005 (ip), vehicle: water) did it give?
The T/C was 42 % of control and 77 % of control.
